PubChem BioAssay AID463173 (ICCB-Longwood Screening Facility, Harvard Medical School, 2010)
Out of some 52,000 compounds screened, about 4,300 (8.3%) were called active. No stated cut-off is given here; in the data, active means survival mostly below about 52% (no sharp cut-off); inactive means mostly above about 56%. Some of the results follow.

These compounds were tested on DeltatarO mutant (assay: S. aureus survival, RN4220 and DeltatarO strains – OD600, teichoic acid synthesis inhibitors, primary screen (AID 463173)). Conditions: S. aureus RN4220 wild type/DeltatarO growth, OD600, 18 h, active compounds read low, screened at 18.75 µg/mL (by protocol).

| SMILES | survival |
| --- | --- |
| COc1ccccc1CNC(=O)c1ccc(C)c(-n2cnc3cccnc32)c1 | inactive: 98% |
| O=C(NCC1CCCCC1)C1CCCN1C(=O)NC1CCCCC1 (stereo not given) | inactive: 91% |
| Cc1ccc(C)c(NC(=O)CSc2cn(CC(=O)N3CCCC3)c3ccccc23)c1 | inactive: 99% |
| CCCN1C(=O)C(NC(=O)c2ccccc2OC)(C(F)(F)F)C(C(=O)OC)=C1C (stereo not given) | inactive: 76% |
| CCOc1ccc(NC(=O)Cc2csc(COc3cccc(C)c3)n2)cc1 | inactive: 85% |
| Cc1ccc2nc(NC(=O)c3cc(=O)c4cc(C)c(C)cc4o3)sc2c1 | inactive: 54% |
| CCOc1ccccc1C1C(C(=O)Nc2ccccc2OC)=C(C)Nc2nc3ccccc3n21 (stereo not given) | active: 59% |
| COc1cc(/C=C/c2nc(C#N)c(NC3CCCCC3)o2)cc(OC)c1OC | active: 32% |
| COc1ncnc(Cl)c1N | inactive: 75% |
| CC(C(=O)N(C(C)C)C(C)C)N1CCN(C)CC1 (stereo not given) | inactive: 92% |
| CCOC(=O)Nc1nnc(-c2ccccc2)s1 | inactive: 76% |
| Cc1ccc(CNc2nc3c(S(=O)(=O)c4ccccc4)nnn3c3ccsc23)cc1 | inactive: 71% |
| O=C(/C=C/c1cn(CC(O)CN2CCCCCC2)c2ccccc12)c1ccccc1 (stereo not given) | inactive: 49% |
| Cc1cc(Br)ccc1NC(=O)c1cc2c(s1)-c1ccccc1SC2 | inactive: 68% |
| COc1ccc(C(=O)N/N=C2/SCC(=O)N2C)c(OC)c1 | inactive: 69% |
| COc1ccc(CN2C(=O)C(NC(=O)c3ccc(C)cc3)(C(F)(F)F)N=C2c2ccccc2)cc1 (stereo not given) | inactive: 74% |
| COc1ccccc1NC(=O)CSc1nc2c(oc3ccccc32)c(=O)n1-c1ccc(C)cc1 | inactive: 80% |
| COc1ccc(NS(=O)(=O)c2nnc(NC(=O)c3ccccc3F)s2)cc1 | inactive: 72% |
| CCOC(=O)N1CCc2c(sc3c2c(=O)n(-c2ccc(Cl)cc2)c(=O)n3CC(=O)c2ccc(F)cc2)C1 | inactive: 77% |
| CC(=O)N1CCC(N(Cc2ccco2)C(=O)Nc2cccc(C)c2)CC1 | inactive: 130% |
| CCOC(=O)c1cc2c(=O)n3ccccc3nc2n(CC2CCCO2)c1=NC(=O)c1cccc(C(F)(F)F)c1 (stereo not given) | inactive: 97% |
| COc1ccc(-c2cc(C(=O)Nc3c(C(=O)c4ccc(Cl)cc4)oc4ccccc34)no2)cc1 | inactive: 56% |
| Cc1cccc(NC(=O)c2cnn(-c3ccccc3)c2-n2cccc2)c1C | inactive: 77% |

| SMILES | survival |
| --- | --- |
| Cc1ccc2nc(NCCCNC(=O)c3cnccn3)c(C#N)cc2c1 | inactive: 97% |
| CCC1CN(C(=O)N2CCC(C(=O)NCc3ccc(C)o3)CC2)c2cc(C)ccc2O1 (stereo not given) | inactive: 76% |
| CCOC(=O)N1CCN(S(=O)(=O)N2CCCC(C(=O)NCc3cccc(OC)c3)C2)CC1 (stereo not given) | inactive: 84% |
| O=C(NCC(c1cccs1)S(=O)(=O)c1cccs1)c1ccccc1 (stereo not given) | inactive: 94% |
| CC(NC(=O)Cn1ncc2c3ccccc3n(Cc3ccc(F)cc3)c2c1=O)c1ccccc1 (stereo not given) | inactive: 90% |
| CCOC(=O)c1ccc(NC(=O)C2Cc3ccccc3CN2S(=O)(=O)c2ccc(Cl)cc2)cc1 (stereo not given) | inactive: 53% |
| Cc1cc(Br)ccc1NC(=O)CCS(=O)(=O)c1cccc2nonc12 | inactive: 83% |
| Cc1ccc(C)c(N2CCN(C(=O)CN3C(=O)COc4ccc(S(=O)(=O)N5CCCCCC5)cc43)CC2)c1 | inactive: 86% |
| CC(=O)c1sc2c(c1C)c(=O)n(-c1ccc(Cl)cc1)c(=O)n2Cc1ccc(Cl)cc1 | inactive: 55% |
| Cc1cc(C)c(Cn2c(C)c(CNCCCc3ccccc3)c(C(=O)O)c2C)c(C)c1 | inactive: 81% |
| CCCCON1C(=O)c2cccc3cccc(c23)C1=O | inactive: 77% |
| O=C(Nc1c(C(=O)N2CCOCC2)cnn1-c1ccccc1)c1ccccc1F | inactive: 88% |
| COc1ccccc1NC(=O)n1ncc2c(C)cccc21 | inactive: 82% |
| CCOC(=O)c1nnc2c(-c3ccc(OC)cc3)c(C)nn2c1N | inactive: 130% |
| CCOC(=O)c1cc2sc(C)cc2n1CC | inactive: 122% |
| CC(=O)N1CCCc2cc(S(=O)(=O)N3CCC(C(=O)NCCC(C)C)CC3)ccc21 | inactive: 91% |
| O=C(NC1CC(=O)N(c2ccc(F)cc2)C1)c1cc2ccccc2o1 (stereo not given) | inactive: 124% |
| CC(=O)c1cccc(NC(=O)CCS(=O)(=O)c2cc(Br)cc3c2N(C(=O)C2CC2)CC3)c1 | inactive: 132% |
| CCCC(=O)N1CC(=O)Nc2ccc(Cl)cc2C1c1ccc(F)cc1 (stereo not given) | inactive: 50% |
| COc1cc2c(cc1OC)-c1n[nH]c(=S)n1C(C)(C)C2 | inactive: 90% |
| Cc1ccc2c(=O)c(C(=O)NC3CCCC3)c[nH]c2c1 | inactive: 92% |
| COC(=O)C1=C(C)NC2=C(C(=O)c3ccccc32)C1c1cc2c(cc1Cl)OCO2 (stereo not given) | inactive: 82% |
| O=S(=O)(Nc1cccc(-c2ccc(N3CCCCC3)nn2)c1)c1cccs1 | inactive: 79% |

| SMILES | survival |
| --- | --- |
| COc1ccc(OC)c(C2CC(=O)c3c([nH]c(C(=O)OCC4CCCCC4)c3C)C2)c1 (stereo not given) | inactive: 71% |
| Cc1cccc(CCn2c(=O)c3ccccc3n(Cc3cccc(F)c3)c2=O)c1 | inactive: 87% |
| CCCn1c(CCC(=O)O)ccc1-c1ccccc1 | inactive: 91% |
| COCCn1c(SCC(=O)Nc2ccc(F)c(Cl)c2)nc2c(oc3ccccc32)c1=O | active: 44% |
| COc1ccc(C(=O)NCCc2sc(-c3cccc(F)c3)nc2C)cc1 | inactive: 67% |
| Cc1nc2ccn(Cc3cccnc3)c(=O)c2cc1C(=O)Nc1ccc(OC(F)(F)F)cc1 | inactive: 98% |
| Cc1ccccc1NS(=O)(=O)c1ccc2[nH]cc(C(=O)N3CCCC3)c(=O)c2c1 | inactive: 80% |
| Cn1c(C(=O)NCc2ccc(F)cc2)cc2c(=O)n(C)c3ccccc3c21 | inactive: 83% |
| NC(=O)CS(=O)(=O)c1ccc(Cl)cc1 | inactive: 78% |
| COc1ccc(CCNC(=O)Cn2nnc(-c3ccc(C(F)(F)F)cc3)n2)cc1OC | inactive: 95% |
| CCCn1c(=O)c2sccc2n2c(CCCC(=O)N3CCN(c4ccccc4)CC3)nnc12 | inactive: 93% |
| CCc1cccc(NC(=O)c2nnn(Cc3ccc(SC)cc3)c2N)c1 | inactive: 59% |
| COc1cccc(N2C(=O)C(CC(=O)Nc3ccc(Cl)cc3)N(Cc3ccc4c(c3)OCO4)C2=O)c1 (stereo not given) | inactive: 45% |
| COc1ccc(N2CCN(C(=O)c3c(C)oc4ncnc(N5CCCCC5)c34)CC2)cc1 | inactive: 119% |
| CCOCCCNC(=O)C(c1ccccc1)N(Cc1cccs1)C(=O)c1ccc(NC(C)=O)cc1 (stereo not given) | inactive: 70% |
| CCn1c(=O)c2sccc2n2c(CCCC(=O)N3CCN(c4ccc(OC)cc4)CC3)nnc12 | inactive: 89% |
| O=C1CC(c2ccccc2)Cc2[nH]c(=O)c(C(=O)Nc3ccc(OC(F)(F)F)cc3)cc21 (stereo not given) | inactive: 163% |
| Cc1cccc(N2CCN(C(=O)C3CCCN(S(=O)(=O)c4cccc5nsnc45)C3)CC2)c1C (stereo not given) | inactive: 80% |
| Cc1cccc(-c2noc(CCCC(=O)NCc3ccco3)n2)c1 | active: 42% |
| COCCn1c(CCC(=O)Nc2cc(C)ccc2C)nc2cccnc21 | inactive: 114% |
| CCOc1ccccc1NC(=O)CCS(=O)(=O)c1cccc2nsnc12 | inactive: 112% |
| Cc1ccc(C)c(Cn2c(C(C)NC(=O)c3ccc(F)cc3)nc3ccccc32)c1 (stereo not given) | inactive: 79% |
| CCN(c1ccccc1)S(=O)(=O)c1cc(-c2onc(C)c2C)ccc1OC | inactive: 79% |

| SMILES | survival |
| --- | --- |
| O=c1[nH]c2ccc(NCc3ccc(-c4cccc(Cl)c4)o3)cc2[nH]1 | inactive: 52% |
| CCOc1ccc(S(=O)(=O)N2CCN(c3cc(Cl)ccc3Cl)CC2)c2ccccc12 | inactive: 64% |
| Cc1ccc(NC(=O)CN2C(=O)C(c3ccc(F)cc3)=NC23CCCCC3)c(C)c1 | inactive: 63% |
| O=C(CCCCCn1c(=O)[nH]c2ccccc2c1=O)NCc1cccc(Cl)c1 | inactive: 69% |
| CCc1ccccc1NC(=O)C(CC)Sc1ncnc2c1sc1ccccc12 (stereo not given) | inactive: 89% |
| CCOc1ccccc1CNC(=O)C1CCN(S(=O)(=O)c2cccc3nonc23)CC1 | inactive: 88% |
| Cn1c(=O)c2c(SCC(=O)N3CCc4ccccc43)nc(-c3cccc(F)c3)nc2n(C)c1=O | inactive: 124% |
| O=C(Nc1ccc(Br)cc1)C1CCCN(S(=O)(=O)c2ccc(Br)s2)C1 (stereo not given) | inactive: 82% |
| Cc1cc(C)c2c(CC(=O)Nc3ccc(S(=O)(=O)N4CCCC(C)C4)cc3)coc2c1 (stereo not given) | inactive: 72% |
| Cc1ccc(OCC(=O)Nc2cccc(OCc3cc(=O)n4ccccc4n3)c2)cc1C | inactive: 96% |
| Fc1c(F)c(Oc2ccccc2)c(F)c(F)c1Oc1ccccc1 | inactive: 100% |
| Cc1cc(Br)ccc1NC(=O)C(Cc1ccccc1)NS(=O)(=O)c1ccc(Br)s1 (stereo not given) | inactive: 114% |
| O=S(=O)(c1ccc2oc(-c3cccnc3)nc2c1)c1ccc2oc(-c3cccnc3)nc2c1 | inactive: 64% |
| CCOc1cc(C2Nc3ccccc3-c3nnc(SCc4ccccc4)nc3O2)ccc1OC (stereo not given) | active: 45% |
| CCC(C(=O)Nc1ccc(C(=O)OC)cc1)n1nc(-c2ccc(C)cc2)c2c(c1=O)CCCC2 (stereo not given) | inactive: 102% |
| O=C(Cc1ccccc1)N1CCSC1=S | inactive: 104% |
| O=C(NCc1ccc(Cl)cc1)c1ccc(CSCc2cccc(Cl)c2)o1 | inactive: 119% |
| O=C(Nc1ccc(Cl)cc1F)c1oc(=O)c2ccccc2c1-c1ccccc1 | inactive: 61% |
| O=C(Cc1ccccc1)N(Cc1cccnc1)c1nc2c(F)cccc2s1 | inactive: 83% |
| COc1ccc(OCc2nc3ccccc3n2C(C)c2ccccc2)cc1 (stereo not given) | active: -15% |
| Cc1ccnc(NS(=O)(=O)c2ccc(NC(=O)C(C)(C)Oc3ccc(Cl)cc3)cc2)n1 | inactive: 73% |
